# Measured values as given in the supplement of paper PMC12217912.
# The list shows a part of the results. Sequences were assembled here from the parent chain. Inactive controls read about 0.05.
# B1: TEV protease; numbered along this chain (parent)
# chain: MGESLFKGPRDYNPISSSICHLTNESDGHTTSLYGIGFGPFIITNKHLFRRNNGTLVVQSLHGVFKVKDTTTLQQHLVDGRDMIIIRMPKDFPPFPQKLKFREPQREERICLVTTNFQTKSMSSMVSDTSCTFPSGDGIFWKHWIQTKDGQCGSPLVSTRDGFIVGIHSASNFTNTNNYFTSVPKNFMELLTNQEAQQWVSGWRLNADSVLWGGHKVFMVKPEEPFQPVKEATQL
# Variants of: B1
# Assay: raw area under fraction-flipped curve 0-4 h after induction (AUC4h, not background-subtracted), DNA-recorder readout of cleavage of the substrate (dimensionless); higher = more cleavage of the substrate by the protease variant
# Details: temperature: 34 °C; time window: 0-4 h after rhamnose induction
# 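Note: Bxb1 expression induced with 0.2% (w/v) L-rhamnose at OD600 near 0.5, cultures sampled hourly, flipped fraction per protease–substrate barcode pair counted by paired-end Illumina sequencing.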
Variant,area with substrate ENLYFCS,area with substrate ENLYFFS,area with substrate ENLYFHS,area with substrate ENLYFIS,area with substrate ENLYFKS,area with substrate ENLYFMS,area with substrate ENLYFNS,area with substrate ENLYFPS,area with substrate ENLYFRS,area with substrate ENLYFSS,area with substrate ENLYFTS,area with substrate ENLYFVS,area with substrate ENLYFWS,area with substrate ENLYFYS,area with substrate ENLYFGS,area with substrate ENLYFLS,area with substrate ENLYFDS,area with substrate ENLYFES
MGESLFKGPRDYNPISSSICHLTNESDGHTTSLYGIGFGPFIITNKHLFRRNNGTLVVQSLHGVFKVKDTTTLQQHLVDGRDMIIIRMPKDFPPFPQKLKFREPQREERICLVTTNFQTKSMSSMVSDTSCTFPSGDGIFWKHWIQTKDGQCGSPLVSTRDGFIVGIHSASNFTNTNNYFTSVPKNFMELLTNHEAQQWVSGWRLNADSVLWGGHKVFMVKPEEPFQPVKEATQL [Q194H],0.0675,0.0788,0.0207,0.054,0.0594,0.0689,0.0681,0.0519,0.0618,0.0627,0.0557,0.0586,0.0068,0.0657,,,,
MGESLFKGPRDYNPISSSICHLTNESDGHTTSLYGIGFGPFIITNKHLFRRNNGTLVVQSLHGVFKVKDTTTLQQHLVDGRDMIIIRMPKDFPPFPQKLKFREPQREERICLVTTNFQTKSMSSMVSDTSCTFPSGDGIFWKHWIQTKDGQCGSPLVSTRDGFIVGIHSASNFTNTNNYFTSVPKNFMELLTNQAAQQWVSGWRLNADSVLWGGHKVFMVKPEEPFQPVKEATQL [E195A],0.0455,0.0696,0.0566,0.0607,0.0664,0.0545,0.057,0.0726,,,0.0616,,0.0628,0.0539,0.0582,0.061,,
MGESLFKGPRDYNPISSSICHLTNESDGHTTSLYGIGFGPFIITNKHLFRRNNGTLVVQSLHGVFKVKDTTTLQQHLVDGRDMIIIRMPKDFPPFPQKLKFREPQREERICLVTTNFQTKSMSSMVSDTSCTFPSGDGIFWKHWIQTKDGQCGSPLVSTRDGFIVGIHSYSNFTNTNNYFTSVPKNFMELLTNQEAQQWVSGWRLNADSVLWGGHKVFMVKPEEPFQPVKEATQL [A170Y],0.0676,0.0741,,0.0544,,,0.072,0.0626,,,,0.0578,,,,,0.0576,
MGESLFKGPRDYNPISSSICHLTNESDGHTTSLYGIGFGPFIITNKHLFRRNNGTLVVQSLHGVFKVKDTTTLQQHLVDGRDMIIIRMPKDFPPFPQKLKFREPQREERICLVTTNFQTKSMSSMVSDTSCTFPSGDGIFWKHWIQTKDGQCGSPLVSTRDGFIVGIHSASNFTNTNNYFTSVPKNFNELLTNQEAQQWVSGWRLNADSVLWGGHKVFMVKPEEPFQPVKEATQL [M188N],0.0476,0.0675,,0.0693,,0.0716,0.0652,0.0632,0.0499,,0.0694,,0.0346,0.0561,,,0.0652,0.0632
MGESLFKGPRDYNPISSSICHLTNESDGHTTSLYGIGFGPFIITNKHLFRRNNGTLVVQSLHGVFKVKDTTTLQQHLVDGRDMIIIRMPKDFPPFPQKLKFREPQREERICLVTTNFQTKSMSSMVSDTSCTFPSGDGIFWKHWIQTKDGQCGSPLVSTRDGFIVGIHSASNFTNTNNYFTRVPKNFMELLTNQEAQQWVSGWRLNADSVLWGGHKVFMVKPEEPFQPVKEATQL [S182R],0.0649,0.0789,,0.0617,0.0597,,0.0605,,0.0536,,0.0636,,,0.0558,,0.0687,0.0403,
MGESLFKGPRDYNPISSSICHLTNESDGHTTSLYGIGFGPFIITNKHLFRRNNGTLVVQSLHGVFKVKDTTTLQQHLVDGRDMIIIRMPKDFPPFPQKLKFREPQREERICLVTTNFQTKSMSSMVSDTSCTFPSGDGIFWKHWIQTKDGQCGSPLVSTRDGFIVGIHSASNFTNTNNYFTSVPKNFMELPTNQEAQQWVSGWRLNADSVLWGGHKVFMVKPEEPFQPVKEATQL [L191P],0.0635,0.0457,,0.0636,0.0501,0.0454,,,0.0533,,,0.0557,,,,,,0.0443
MGESLFKGPRDYNPISSSICHLTNESDGHTTSLYGIGFGPFIITNKHLFRRNNGTLVVQSLHGVFKVKDTTTLQQHLVDGRDMIIIRMPKDFPPFPQKLKFREPQREERICLVTTNFQTKSMSSMVSDTSCTFPSGDGIFWKHWIQTKDGQCGSPLVSTRDGFIVGIHDASNFTNTNNYFTSVPKNFMELLTNQEAQQWVSGWRLNADSVLWGGHKVFMVKPEEPFQPVKEATQL [S169D],0.0523,0.0676,0.0579,0.0606,0.0433,0.0618,0.0654,0.0635,,,0.0527,0.0792,0.0576,0.0683,,,,0.0846
MGESLFKGPRDYNPISSSICHLTNESDGHTTSLYGIGFGPFIITNKHLFRRNNGTLVVQSLHGVFKVKDTTTLQQHLVDGRDMIIIRMPKDFPPFPQKLKFREPQREERICLVTTNFQTKSMSSMVSDTSCTFPSGDGIFWKHWIQTKDGQCGSPLVSTRDGFIVGIHSASNFTLTNNYFTSVPKNFMELLTNQEAQQWVSGWRLNADSVLWGGHKVFMVKPEEPFQPVKEATQL [N175L],0.0583,,0.0527,0.0542,0.0677,0.0563,,0.0583,,0.0685,0.056,,0.0479,,,0.0624,,0.0872
MGESLFKGPRDYNPISSSICHLTNESDGHTTSLYGIGFGPFIITNKHLFRRNNGTLVVQSLHGVFKVKDTTTLQQHLVDGRDMIIIRMPKDFPPFPQKLKFREPQREERICLVTTNFQTKSMSSMVSDTSCTFPSGDGIFWKHWIQTKDGQCGSPLVSTRDGFIVGIHSASNFTGTNNYFTSVPKNFMELLTNQEAQQWVSGWRLNADSVLWGGHKVFMVKPEEPFQPVKEATQL [N175G],0.0583,0.0737,,0.0711,0.0586,0.0611,0.0508,0.0648,,,0.0478,0.0556,,0.049,,0.0626,0.0586,0.0629
MGESLFKGPRDYNPISSSICHLTNESDGHTTSLYGIGFGPFIITNKHLFRRNNGTLVVQSLHGVFKVKDTTTLQQHLVDGRDMIIIRMPKDFPPFPQKLKFREPQREERICLVTTNFQTKSMSSMVSDTSCTFPSGDGIFWKHWIQTKDGQCGSPLVSTRDGFIVGIHSASNFTNTNNYFTSVPKNFMELLTNQEWQQWVSGWRLNADSVLWGGHKVFMVKPEEPFQPVKEATQL [A196W],0.0631,,,0.0585,0.065,0.0727,,,0.0378,,0.034,,,0.065,,0.0687,0.0592,0.0595
